# Measurements published in ChEMBL document CHEMBL4888484, “Replenishing the malaria drug discovery pipeline: Screening and hit evaluation of the MMV Hit Generation Library 1 (HGL1) against asexual blood stage Plasmodium falciparum ,using a nano luciferase reporter read-out” (2022).
# Where “and” joins values, the source holds several entries; their conditions need not be identical. Equal entries are not always repeated. Screen size: about 150,000 compounds; about 540 (0.36%) showed an effect of 50% or more. Some of the results follow.
# Test system: Plasmodium falciparum
# Experiment: Primary screen in NF54 nanoGlo assay, in single point, at 2uM, 72h; a lower Z score goes with more inhibition
# Type: functional, Erythrocyte
# Conditions: timepoint 72 hour
smiles,measurement,setting,value
Cc1nonc1[C@H](C)NCCN1CCCOCC1,% Inhibition,,8%
same,Z score,,-1.35
O=C(Cn1cccn1)Nc1nncn1C1CC1,% Inhibition,,-6%
same,Z score,,0.76
CCCc1nc(CN(CC)C(=O)NCc2cncn2CC)no1,% Inhibition,,-16%
same,Z score,,1.57
Cc1n[nH]c(=O)nc1NC1CCCCCCC1,% Inhibition,,-10%
same,Z score,,1.29
O=C(Nc1ccc(=O)n(Cc2cccnc2)c1)c1cc2ccccc2o1,% Inhibition,,4%
same,Z score,,-0.74
CCc1cc(NC(=O)N2CCN([C@H]3CCCN(C)C3)CC2)nn1C,% Inhibition,,9%
same,Z score,,-1.08
COc1ccc2cc3n(c2c1)C[C@](C(=O)NC1CCCCCC1)(c1ccccc1)N(Cc1ccccc1Cl)C3=O,% Inhibition,,32%
same,Z score,,-1.22
CCn1ncc(CN(C)c2ncc3c(=O)n(-c4ccccc4)c(=O)[nH]c3n2)c1C,% Inhibition,,-8%
same,Z score,,0.94
Cc1cc(C(=O)N2CCN(c3ccccc3F)CC2)nc(N(C)C)n1,% Inhibition,,29%
same,Z score,,-3.91
O=C(NCc1ccco1)c1cn(-c2ncccc2-c2nc(-c3ccccc3)no2)cn1,% Inhibition,,-5%
same,Z score,,0.68
CCc1ncnc(NCc2cnn(C)c2C)c1F,% Inhibition,,-6%
same,Z score,,0.98
Cc1cccc(N2CCN([C@H]3CS(=O)(=O)C[C@@H]3S(=O)(=O)c3ccc(F)c(C)c3)CC2)c1,% Inhibition,,-20%
same,Z score,,2.49
CCC(=O)N1CCc2[nH]cnc2C12CCN(C(=O)[C@@H](C)Cn1cncn1)CC2,% Inhibition,,-9%
same,Z score,,1.02
Cc1cc(CNC(=O)N(Cc2cnn(C)c2)CC(C)C)ccn1,% Inhibition,,-8%
same,Z score,,1.38
CCOC[C@H]1CCN(C(=O)c2occc2NC(=O)OC(C)(C)C)C1,% Inhibition,,-14%
same,Z score,,1.76
CCOCCO/C(=N/C(=O)c1cccc(OC)c1)NCCCOC,% Inhibition,,-22%
same,Z score,,1.93
C[C@@]1(c2nc(Cc3cccs3)nn2CC(F)(F)F)CCCO1,% Inhibition,,-15%
same,Z score,,1.41
COc1cc2c(cc1OC)CN(c1cc(C(=O)NC3C[C@H]4CC[C@@H]3C4)c3ccccc3n1)CC2 (some centres not stated),% Inhibition,,12%
same,Z score,,-2.02
Cc1ccnc(NC(=O)c2cc(O)ncn2)c1,% Inhibition,,-15%
same,Z score,,2.49
O=C(CN[C@@H](CO)c1ccc(Cl)c(F)c1)N1CCCCCC1,% Inhibition,,-6%
same,Z score,,1.2
O=C(Nc1ccc2[nH]c(C3CC3)nc2c1)c1cccs1,% Inhibition,,-16%
same,Z score,,1.75
COc1ccc(CNC(=O)C[C@@H]2O[C@H](CNC(=O)Nc3cccc(F)c3)[C@@H](O)[C@H]2O)cc1,% Inhibition,,-6%
same,Z score,,0.93
Cc1n[nH]c(NC(=O)C(C)(C)C2CCC2)c1C,% Inhibition,,1%
same,Z score,,-0.19
CC1CCN(Cc2cnc3ccccn23)CC1n1ccnc1 (configuration not stated),% Inhibition,,-9%
same,Z score,,0.77
CN1CCN(C(=O)[C@@H]2CC3(CCN(S(=O)(=O)c4ccccc4F)CC3)CN2C)CC1,% Inhibition,,0%
same,Z score,,0.01
COC(OC)[C@H](C)NC(=O)Nc1ccc(F)cn1,% Inhibition,,-3%
same,Z score,,0.42
Cn1c(=O)c2cn3c(c2n(C)c1=O)[C@@H](c1cc(Cl)ccc1O)Nc1ccccc1-3,% Inhibition,,1%
same,Z score,,-0.27
COc1ccc(O)c(C(=O)N[C@H]2CC[C@H](OC)CC2)c1,% Inhibition,,19%
same,Z score,,-2.44
Cc1cnc([C@H](C)Nc2ccc(C#N)c(C)n2)s1,% Inhibition,,-4%
same,Z score,,0.74
CCc1noc(-c2cccnc2-n2cnc(C(=O)Nc3cccc(C)c3C)c2)n1,% Inhibition,,-15%
same,Z score,,1.97
O=C(NC1CCNCC1)C1(Cc2ccccc2)CC2CCC1C2 (configuration not stated),% Inhibition,,-4%
same,Z score,,0.32
Cc1cc(=O)c(C(=O)N2CCN(c3ncccc3C)CC2)c(C)[nH]1,% Inhibition,,5%
same,Z score,,-0.65
O=C(NC1CC(N2CCCCC2)C1)c1coc(C2CCCCC2)n1 (configuration not stated),% Inhibition,,-7%
same,Z score,,1.01
O=C(CN1CCCCC1)Nc1cccc2nonc12,% Inhibition,,9%
same,Z score,,-1.29
CCCCn1ncnc1-c1ccc(N(C)C)nc1,% Inhibition,,-6%
same,Z score,,1.14
COCCC1(C(=O)Nc2cc(C(=O)N3CCCCC3)ccc2Cl)CCC1,% Inhibition,,6%
same,Z score,,-0.74
CCCCNC(=O)N1CCC[C@@H]1CS(N)(=O)=O,% Inhibition,,0%
same,Z score,,0.04
COc1ccc2c(c1)[C@]1(C(=O)N2)C(C(=O)c2ccco2)[C@@H](c2ccc(Cl)cc2)CN1C (some centres not stated),% Inhibition,,1%
same,Z score,,-0.16
O=C1N[C@H]2CN(C(=O)c3ccc4c(c3)OCCO4)C[C@@H]2OCc2cn(nn2)CCOc2cccnc21,% Inhibition,,-4%
same,Z score,,0.47
O=C(NCC[C@H](O)c1ccco1)c1ccccn1,% Inhibition,,-3%
same,Z score,,0.47
COc1ccc([C@@H]2C=C(c3ccc(Cl)cc3)N=C3NC(NC(=O)c4ccccc4OC)=NN32)cc1,% Inhibition,,96%
same,Z score,,-8.52
O=C(c1csc2c1CCCC2)N1CCCCCCC1,% Inhibition,,4%
same,Z score,,-0.62
O=C1C[C@@H](C(=O)Nc2ccccc2)c2c(O)nc(N3CCOCC3)nc2N1,% Inhibition,2 µM,-12% and -3%
O=C(c1ccccc1)N1CCN(CCS(=O)(=O)Oc2ccccc2)CC1,% Inhibition,,10%
same,Z score,,-1.42
CC(C)(CNC(=O)c1ccc2cc[nH]c2n1)C1CCOCC1,% Inhibition,,4%
same,Z score,,-0.67
Cc1nc2cc(Br)cc(NC(=O)COc3ccc(F)cc3)c2o1,% Inhibition,,1%
same,Z score,,-0.15
O=C(NCCc1cn([C@H]2CCOC2)nn1)C1CCCCCCC1,% Inhibition,,-7%
same,Z score,,1.41
CC[C@@H](C(=O)Nc1cc(C)ccc1OC)n1nc(C)c2c(C)onc2c1=O,% Inhibition,,10%
same,Z score,,-0.97
O=C(Nc1cccc(C=Cc2ccncn2)c1)C(F)(F)F,% Inhibition,,4%
same,Z score,,-0.36
NC(=O)NC(=O)CN1CCCC1CC(O)c1cccs1 (configuration not stated),% Inhibition,,-10%
same,Z score,,1.02
Cc1nnc(COC(=O)c2cccc(C3OCCO3)c2)o1,% Inhibition,,-2%
same,Z score,,0.31
OCCn1c(CN2CCC[C@H](c3nc4ccccc4s3)C2)nc2ccc(Cl)cc21,% Inhibition,,-14%
same,Z score,,2.3
CCN1C[C@@H](CN(C)C(=O)c2cncc(O)c2)CC1=O,% Inhibition,,-5%
same,Z score,,0.78
Cc1ncc(COc2ccc3c(c2)CCO3)o1,% Inhibition,,-8%
same,Z score,,0.78
